Measured values as given in article PMC10284394.
These are yes or no findings as the source states them, for the method shown. For part of these data: In cells and extracts the contact can be indirect. Some binding calls cover weakened binding; strength is not graded here. For part of these data: Tags and fused reporters may be left off the sequences shown. Each block holds one molecule with its values, some of them ahead of it.

By UniProt entry, the sequences of proteins in these tests, tags left out. Where a name states a change or a piece, a line headed by the entry shows the natural chain unless it says otherwise.
UniProt P21707: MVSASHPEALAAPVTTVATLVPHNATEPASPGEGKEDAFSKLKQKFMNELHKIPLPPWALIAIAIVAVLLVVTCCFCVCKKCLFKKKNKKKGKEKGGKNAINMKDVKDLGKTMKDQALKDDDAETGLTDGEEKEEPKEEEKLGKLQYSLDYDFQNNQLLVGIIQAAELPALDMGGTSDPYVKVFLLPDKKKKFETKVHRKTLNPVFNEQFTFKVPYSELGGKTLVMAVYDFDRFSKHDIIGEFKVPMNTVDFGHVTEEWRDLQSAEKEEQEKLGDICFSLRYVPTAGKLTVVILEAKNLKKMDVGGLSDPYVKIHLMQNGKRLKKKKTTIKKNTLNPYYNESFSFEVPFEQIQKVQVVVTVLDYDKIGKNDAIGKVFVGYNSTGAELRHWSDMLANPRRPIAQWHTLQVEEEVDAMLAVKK
UniProt P46096: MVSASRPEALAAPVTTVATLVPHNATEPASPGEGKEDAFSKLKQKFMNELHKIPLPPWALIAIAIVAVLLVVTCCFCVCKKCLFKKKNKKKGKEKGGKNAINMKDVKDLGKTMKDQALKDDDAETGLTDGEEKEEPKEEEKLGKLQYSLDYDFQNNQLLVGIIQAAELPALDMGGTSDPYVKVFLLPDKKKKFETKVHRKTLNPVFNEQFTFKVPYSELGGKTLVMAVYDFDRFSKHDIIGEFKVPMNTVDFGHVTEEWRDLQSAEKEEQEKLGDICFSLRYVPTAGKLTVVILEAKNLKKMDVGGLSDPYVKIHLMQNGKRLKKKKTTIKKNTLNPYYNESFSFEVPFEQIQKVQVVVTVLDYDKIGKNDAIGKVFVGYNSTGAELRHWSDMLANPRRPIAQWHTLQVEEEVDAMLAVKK
UniProt Q9R0N7: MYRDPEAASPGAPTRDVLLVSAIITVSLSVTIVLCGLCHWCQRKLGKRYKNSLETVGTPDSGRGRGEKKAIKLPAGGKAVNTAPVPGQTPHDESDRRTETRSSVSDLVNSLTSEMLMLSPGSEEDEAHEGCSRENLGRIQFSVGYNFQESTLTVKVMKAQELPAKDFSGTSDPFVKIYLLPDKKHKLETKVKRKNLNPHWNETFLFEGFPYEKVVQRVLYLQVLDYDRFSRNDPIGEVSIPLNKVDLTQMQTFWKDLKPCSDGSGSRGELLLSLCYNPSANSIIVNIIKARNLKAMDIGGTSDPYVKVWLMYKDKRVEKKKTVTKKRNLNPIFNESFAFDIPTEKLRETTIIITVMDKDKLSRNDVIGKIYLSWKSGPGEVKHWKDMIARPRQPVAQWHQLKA

Experiments:
GST-Rab26Q123L = target: T1, GST-Rab26Q123L (UniProt Q9ULW5); assay: pull-down; GST-Rab26 fusion proteins coupled to GST-Sepharose 4B resin, incubated with lysates of 293T cells transfected with GFP-tagged proteins, 4°C for 4 h; western blot with GFP antibody; only the target purified
T1 sequence: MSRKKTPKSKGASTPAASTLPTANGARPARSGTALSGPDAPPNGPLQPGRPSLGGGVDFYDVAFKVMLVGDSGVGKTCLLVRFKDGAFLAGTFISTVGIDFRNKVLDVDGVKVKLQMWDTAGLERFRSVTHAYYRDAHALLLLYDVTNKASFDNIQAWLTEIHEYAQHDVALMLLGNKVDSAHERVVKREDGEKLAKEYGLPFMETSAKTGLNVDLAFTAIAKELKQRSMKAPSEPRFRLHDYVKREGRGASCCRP

GST-Rab26WT = target: T2, GST-Rab26WT (UniProt Q9ULW5); assay: as above
T2 sequence: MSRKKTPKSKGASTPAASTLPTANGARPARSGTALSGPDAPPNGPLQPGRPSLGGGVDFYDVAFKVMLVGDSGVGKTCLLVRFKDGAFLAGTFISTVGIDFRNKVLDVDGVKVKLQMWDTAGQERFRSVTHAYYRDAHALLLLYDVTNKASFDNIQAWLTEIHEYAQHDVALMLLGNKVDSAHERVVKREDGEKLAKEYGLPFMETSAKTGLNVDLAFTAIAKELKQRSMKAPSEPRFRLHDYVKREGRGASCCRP

GST-Rab26b = target: T3, GST-Rab26b (UniProt Q9ULW5); assay: as above
T3 sequence: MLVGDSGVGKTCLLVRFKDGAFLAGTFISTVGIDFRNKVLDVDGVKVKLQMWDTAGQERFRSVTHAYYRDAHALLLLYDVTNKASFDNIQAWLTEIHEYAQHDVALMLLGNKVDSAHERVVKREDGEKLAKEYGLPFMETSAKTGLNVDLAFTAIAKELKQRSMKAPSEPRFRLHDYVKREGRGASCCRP

[1] = target: endogenous Synaptotagmin-1 (INS-1 cells) (rat (endogenous in INS-1)) (UniProt P21707); assay: co-IP; INS-1 cell lysates immunoprecipitated with anti-Syt1 antibody; endogenous proteins; lysis buffer 20 mM HEPES pH 7.4, 1% Triton-100, 100 mM NaCl, 5 mM MgCl2
GST-Syt1 (mouse) [2] = target: GST-Syt1 (mouse) (UniProt P46096); assay: pull-down; GST-Syt1 beads incubated overnight at 4°C with lysates of 293t cells cotransfected with myc-Vector or myc-Rab26 and GFP-SNAP25 or GFP-Syntaxin 1A; also cells incubated 5 min at 37°C with or without 10 μM CaCl2; western blot with GFP antibody; only the target purified
GST-Syt1 (mouse) [3] = target: GST-Syt1 (mouse) (UniProt P46096); assay: pull-down; in vitro binding assay with prokaryotic-expressed GST-Syt1 and His-Rab26; both purified
GST-Syt1 (mouse) [4] = target: GST-Syt1 (mouse) (UniProt P46096); assay: pull-down; GST-Syt1 beads incubated overnight at 4°C with lysates of 293t cells transfected with GFP-tagged Rab proteins; western blot with GFP antibody; only the target purified

Molecule: GFP-Syt1 (from UniProt P46096 1-421)
binding (GST-Rab26Q123L): binds
binding (GST-Rab26WT): binds
binding (GST-Rab26b): no binding

Molecule: GFP-Syt1C2A (1-263aa) (from UniProt P46096 1-263) (domain or fragment)
binding (GST-Rab26WT): binds

Molecule: GFP-Syt1C2B (264–422 aa) (from UniProt P46096 264-421) (domain or fragment)
binding (GST-Rab26WT): no binding

B4: GFP-Rab26 (protein, UniProt Q9ULW5 1-256)
chain: MSRKKTPKSKGASTPAASTLPTANGARPARSGTALSGPDAPPNGPLQPGRPSLGGGVDFYDVAFKVMLVGDSGVGKTCLLVRFKDGAFLAGTFISTVGIDFRNKVLDVDGVKVKLQMWDTAGQERFRSVTHAYYRDAHALLLLYDVTNKASFDNIQAWLTEIHEYAQHDVALMLLGNKVDSAHERVVKREDGEKLAKEYGLPFMETSAKTGLNVDLAFTAIAKELKQRSMKAPSEPRFRLHDYVKREGRGASCCRP
binding (GST-Syt1 (mouse) [4]): binds

B5: GFP-Rab26b (protein, UniProt Q9ULW5-1 67-256)
chain: MLVGDSGVGKTCLLVRFKDGAFLAGTFISTVGIDFRNKVLDVDGVKVKLQMWDTAGQERFRSVTHAYYRDAHALLLLYDVTNKASFDNIQAWLTEIHEYAQHDVALMLLGNKVDSAHERVVKREDGEKLAKEYGLPFMETSAKTGLNVDLAFTAIAKELKQRSMKAPSEPRFRLHDYVKREGRGASCCRP
binding (GST-Syt1 (mouse) [4]): no binding

B6: GFP-Syt4 (protein, UniProt P40749 1-425)
chain: MAPITTSRVEFDEIPTVVGIFSAFGLVFTVSLFAWICCQRRSAKSNKTPPYKFVHVLKGVDIYPENLSSKKKFGGDDKSEVKGKAALPNLSLHLDLEKRDLNGNFPKANPKAGSSSDLENVTPKLFTETEKEANSPESLKSSTSLTSEEKQEKLGTLFLSLEYNFEKKAFVVNIKEAQGLPAMDEQSMTSDPYIKMTILPEKKHRVKTRVLRKTLDPVFDETFTFYGIPYPHIQELSLHFTVLSFDRFSRDDVIGEVLIPLSGIELSDGKMLMTREIIKRNAKKSSGRGELLVSLCYQSTTNTLTVVVLKARHLPKSDVSGLSDPYVKVNLYHAKKRISKKKTHVKKCTPNAVFNELFVFDIPCESLEEISVEFLVLDSERGSRNEVIGRLVLGATAEGSGGGHWKEICDFPRRQIAKWHMLCDG
binding (GST-Rab26WT): no binding

Continued, values first:

binding (GST-Rab26WT): no binding
Molecule: GFP-Syt7 (from UniProt Q9R0N7 1-403)

binding [1]: binds
B1: endogenous Rab26 (INS-1 cells) (protein, UniProt P51156 1-257)
chain: MSRKKTPKSKGGSVPAASTLPAAANGPRLAHPRTARPGPEAPPNGPPQSGRPSLGGTGDFYDVAFKVMLVGDSGVGKTCLLVRFKDGAFLAGTFISTVGIDFRNKVLDVDGMKVKLQIWDTAGQERFRSVTHAYYRDAHALLLLYDITNKDSFDNIQAWLTEIQEYAQQDVVLMLLGNKVDSTQERVVKREDGEKLAKEYGLPFMETSAKSGLNVDLAFTAIAKELKQRSTKAPSEPRFRLHDYVKREGRGVSCCRL

binding (GST-Syt1 (mouse) [2]): binds
B2: myc-Rab26 (protein, UniProt Q9ULW5 1-256)
chain: MSRKKTPKSKGASTPAASTLPTANGARPARSGTALSGPDAPPNGPLQPGRPSLGGGVDFYDVAFKVMLVGDSGVGKTCLLVRFKDGAFLAGTFISTVGIDFRNKVLDVDGVKVKLQMWDTAGQERFRSVTHAYYRDAHALLLLYDVTNKASFDNIQAWLTEIHEYAQHDVALMLLGNKVDSAHERVVKREDGEKLAKEYGLPFMETSAKTGLNVDLAFTAIAKELKQRSMKAPSEPRFRLHDYVKREGRGASCCRP

binding (GST-Syt1 (mouse) [3]): binds
B3: His-Rab26 (protein, UniProt Q9ULW5 1-256)
chain: MSRKKTPKSKGASTPAASTLPTANGARPARSGTALSGPDAPPNGPLQPGRPSLGGGVDFYDVAFKVMLVGDSGVGKTCLLVRFKDGAFLAGTFISTVGIDFRNKVLDVDGVKVKLQMWDTAGQERFRSVTHAYYRDAHALLLLYDVTNKASFDNIQAWLTEIHEYAQHDVALMLLGNKVDSAHERVVKREDGEKLAKEYGLPFMETSAKTGLNVDLAFTAIAKELKQRSMKAPSEPRFRLHDYVKREGRGASCCRP
